The other results are listed elsewhere or left out.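 How the source made its calls: active = more than 2 SD below the DMSO mean: under 0.85 at 10 µM or 0.885 at 1 µM; inactive = the rest.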 Repeats are few or missing, and single values can be far off. Where a SMILES comes first, the peptide text is derived from it. The star is where a group is joined. Cbz = O=C(OCc1ccccc1)*
Test system: RPE1
Assay: nucleolar normality score relative to DMSO (fraction of DMSO control); RPE1 is a non-cancer human cell line; higher = more normal nucleoli (less nucleolar stress)
Details: 24 h
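Further: fixed cells immunolabelled for nucleolin and UBF, 40 image fields per well in 384-well plates, per-cell score = nucleolin nucleolar/nucleoplasm intensity ratio divided by the matching UBF ratio.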

Cn1ncc(Cl)c1-c1cc(C(=O)N[C@H](CN)Cc2ccc(F)c(F)c2)oc1Cl
nucleolar normality score (1 µM): inactive: 1
nucleolar normality score (10 µM): inactive: 1

C[C@H](NC(=O)CCC(F)(F)F)C(=O)N[C@@H]1C(=O)N(CCO)c2ncccc2-c2ccccc21
nucleolar normality score (1 µM): active: 0.839
nucleolar normality score (10 µM): inactive: 0.872

CC(C)(C#N)c1ccc(N2C(=O)OCc3cnc4ccc(-c5cnc6ccccc6c5)cc4c32)cc1
nucleolar normality score (1 µM): inactive: 0.991
nucleolar normality score (10 µM): inactive: 0.911

COC(=O)C1=CO[C@@H](O[C@@H]2O[C@H](CO)[C@@H](O)[C@H](O)[C@H]2O)[C@@H]2[C@@H](C)[C@@H](O)C[C@H]12 [Loganin]
nucleolar normality score (1 µM): inactive: 1.06
nucleolar normality score (10 µM): inactive: 0.913

CC(C)C[C@@H](C=O)NC(=O)[C@H](CC(C)C)NC(=O)[C@H](CC(C)C)NC(=O)OCc1ccccc1 (Cbz-Leu-Leu-Leu-aldehyde)
nucleolar normality score (1 µM): inactive: 1.05
nucleolar normality score (10 µM): inactive: 0.896

COc1ccc(-n2c(C)c([N+](=O)[O-])c3ccc(O)cc32)cc1
nucleolar normality score (1 µM): inactive: 1.01
nucleolar normality score (10 µM): inactive: 1.04

CC(C)C[C@H](NC(=O)[C@H](CCc1ccccc1)NC(=O)CN1CCOCC1)C(=O)N[C@@H](Cc1ccccc1)C(=O)N[C@@H](CC(C)C)C(=O)[C@@]1(C)CO1 [Carfilzomib (PR-171)]
nucleolar normality score (1 µM): active: 0.79
nucleolar normality score (10 µM): active: 0.693

COc1cc(OC)c(C=C2C(=O)Nc3ccccc32)c(OC)c1
nucleolar normality score (1 µM): inactive: 0.98
nucleolar normality score (10 µM): inactive: 1.04

O=Nc1c(-c2c(O)[nH]c3cc(Br)ccc23)[nH]c2ccccc12
nucleolar normality score (1 µM): active: 0.882
nucleolar normality score (10 µM): inactive: 0.957

CN(NC(=O)CC(=O)NN(C)C(=S)c1ccccc1)C(=S)c1ccccc1 [Elesclomol (STA-4783)]
nucleolar normality score (1 µM): active: 0.505
nucleolar normality score (10 µM): active: 0.592

C[C@H]1O[C@@H](O[C@H]2CC[C@@]3(C)[C@@H](CC[C@]4(C)[C@@H]3C=C[C@]35OC[C@@]6(CCC(C)(C)C[C@H]63)[C@@H](O)C[C@]54C)[C@]2(C)CO)[C@H](O)[C@@H](O[C@@H]2O[C@H](CO)[C@@H](O)[C@H](O)[C@H]2O)[C@H]1O [Saikosaponin A]
nucleolar normality score (1 µM): inactive: 0.964
nucleolar normality score (10 µM): inactive: 0.993

O=C(Cc1cccc(OC(F)(F)F)c1)Nc1ccc(CCCCc2nnc(NC(=O)Cc3ccccn3)s2)nn1
nucleolar normality score (1 µM): active: 0.805
nucleolar normality score (10 µM): active: 0.787

O=C(O)CCNc1cc(N2CCc3ccccc3CC2)nc(-c2ccccn2)n1
nucleolar normality score (1 µM): inactive: 0.972
nucleolar normality score (10 µM): inactive: 1

COc1cc(CNC(=O)CCCCC=CC(C)C)ccc1O [Capsaicin(Vanilloid)]
nucleolar normality score (1 µM): inactive: 1.03
nucleolar normality score (10 µM): inactive: 1.1

Cc1cc([N+](=O)[O-])ccc1NS(=O)(=O)c1cc(Cl)ccc1Cl
nucleolar normality score (1 µM): inactive: 0.932
nucleolar normality score (10 µM): inactive: 1.01

COc1ccc(-c2cc(=O)c3c(O)cc(O)cc3o2)cc1 [Acacetin]
nucleolar normality score (1 µM): inactive: 1.01
nucleolar normality score (10 µM): inactive: 1.03

Cc1ccc(NC(=O)c2ccc(CN3CCN(C)CC3)cc2)cc1Nc1nc(-c2cccnc2)cs1 [Masitinib (AB1010)]
nucleolar normality score (1 µM): inactive: 1.03
nucleolar normality score (10 µM): inactive: 1.1

O=C(Nc1cc(C(F)(F)F)ccc1N1CCCCC1)c1ccncc1
nucleolar normality score (1 µM): inactive: 0.969
nucleolar normality score (10 µM): inactive: 1.01

O=C(CCNC(=O)c1ccc(OC(F)(F)F)cc1)N[C@@H]1CCCc2ccccc21
nucleolar normality score (1 µM): inactive: 1.05
nucleolar normality score (10 µM): inactive: 1.01

From the supplement of paper PMC10723795
